Results reported in the supplement of paper PMC11741623.
The other results are listed elsewhere or left out. Interaction screen of human proteins with wild-type SARS-CoV-2 proteins by split-DHFR complementation in yeast, 1 µg/mL methotrexate. Value = fitness of the pair (three or more lineages) minus that of the viral protein without a human partner, on a scale set by negative (0) and fused positive (1) controls, mean of up to three cultures; higher = more likely to interact. Active = false discovery rate below 0.05 (one-sided t-test) in at least one culture. Nearly all pairs are not hits, and differences among them are mostly noise (correlation between cultures about 0.3); most hits were seen in one culture only. Human sequences are the Swiss-Prot entries looked up by gene name; the clone may be another isoform. NSP2 values were corrected by the authors for a growth advantage. Listed are human proteins with a hit and a random twelfth of the others.

B1: PHYHIP, Q92561 (protein)
chain: MELLSTPHSIEINNITCDSFRISWAMEDSDLERVTHYFIDLNKKENKNSNKFKHRDVPTKLVAKAVPLPMTVRGHWFLSPRTEYSVAVQTAVKQSDGEYLVSGWSETVEFCTGDYAKEHLAQLQEKAEQIAGRMLRFSVFYRNHHKEYFQHARTHCGNMLQPYLKDNSGSHGSPTSGMLHGVFFSCNTEFNTGQPPQDSPYGRWRFQIPAQRLFNPSTNLYFADFYCMYTAYHYAILVLAPKGSLGDRFCRDRLPLLDIACNKFLTCSVEDGELVFRHAQDLILEIIYTEPVDLSLGTLGEISGHQLMSLSTADAKKDPSCKTCNISVGR
B2: HSF2, Q03933 (protein)
chain: MKQSSNVPAFLSKLWTLVEETHTNEFITWSQNGQSFLVLDEQRFAKEILPKYFKHNNMASFVRQLNMYGFRKVVHIDSGIVKQERDGPVEFQHPYFKQGQDDLLENIKRKVSSSKPEENKIRQEDLTKIISSAQKVQIKQETIESRLSELKSENESLWKEVSELRAKHAQQQQVIRKIVQFIVTLVQNNQLVSLKRKRPLLLNTNGAQKKNLFQHIVKEPTDNHHHKVPHSRTEGLKPRERISDDIIIYDVTDDNADEENIPVIPETNEDVISDPSNCSQYPDIVIVEDDNEDEYAPVIQSGEQNEPARESLSSGSDGSSPLMSSAVQLNGSSSLTSEDPVTMMDSILNDNINLLGKVELLDYLDSIDCSLEDFQAMLSGRQFSIDPDLLVDLFTSSVQMNPTDYINNTKSENKGLETTKNNVVQPVSEEGRKSKSKPDKQLIQYTAFPLLAFLDGNPASSVEQASTTASSEVLSSVDKPIEVDELLDSSLDPEPTQSKLVRLEPLTEAEASEATLFYLCELAPAPLDSDMPLLDS
B3: RBBP7, Q16576 (protein)
chain: MASKEMFEDTVEERVINEEYKIWKKNTPFLYDLVMTHALQWPSLTVQWLPEVTKPEGKDYALHWLVLGTHTSDEQNHLVVARVHIPNDDAQFDASHCDSDKGEFGGFGSVTGKIECEIKINHEGEVNRARYMPQNPHIIATKTPSSDVLVFDYTKHPAKPDPSGECNPDLRLRGHQKEGYGLSWNSNLSGHLLSASDDHTVCLWDINAGPKEGKIVDAKAIFTGHSAVVEDVAWHLLHESLFGSVADDQKLMIWDTRSNTTSKPSHLVDAHTAEVNCLSFNPYSEFILATGSADKTVALWDLRNLKLKLHTFESHKDEIFQVHWSPHNETILASSGTDRRLNVWDLSKIGEEQSAEDAEDGPPELLFIHGGHTAKISDFSWNPNEPWVICSVSEDNIMQIWQMAENIYNDEESDVTTSELEGQGS
B4: AKR1C3, P42330 (protein)
chain: MDSKHQCVKLNDGHFMPVLGFGTYAPPEVPRSKALEVTKLAIEAGFRHIDSAHLYNNEEQVGLAIRSKIADGSVKREDIFYTSKLWSTFHRPELVRPALENSLKKAQLDYVDLYLIHSPMSLKPGEELSPTDENGKVIFDIVDLCTTWEAMEKCKDAGLAKSIGVSNFNRRQLEMILNKPGLKYKPVCNQVECHPYFNRSKLLDFCKSKDIVLVAYSALGSQRDKRWVDPNSPVLLEDPVLCALAKKHKRTPALIALRYQLQRGVVVLAKSYNEQRIRQNVQVFEFQLTAEDMKAIDGLDRNLHYFNSDSFASHPNYPYSDEY

target: SARS-CoV-2 NSP13; test: yeast fitness gain over the viral ORF with no human partner (scaled fitness); higher = more likely to interact
Protocol: (§1)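 Split mouse DHFR complementation in pooled diploid yeast: human ORFeome clones carry one fragment and viral ORFs the other; barcoded lineages compete in 1 µg/mL methotrexate and fitness is read by barcode sequencing in up to three cultures.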

Binder | yeast fitness gain
B1 | inactive: -0.0279
B3 | inactive: -0.219

target: SARS-CoV-2 NSP2; test: as above
Protocol: as §1

Binder | yeast fitness gain
B1 | inactive: -0.121
B3 | inactive: -0.28

target: SARS-CoV-2 NSP6; test: as above
Protocol: as §1

Binder | yeast fitness gain
B1 | inactive: 0.0684
B2 | inactive: 0.0222
B4 | inactive: 0.0396

target: SARS-CoV-2 ORF3B; test: as above
Protocol: as §1

Binder | yeast fitness gain
B1 | inactive: 0.101

target: SARS-CoV-2 ORF7A; test: as above
Protocol: as §1

Binder | yeast fitness gain
B1 | inactive: 0.081

target: SARS-CoV-2 ORF7B; test: as above
Protocol: as §1

Binder | yeast fitness gain
B1 | inactive: 0.134

target: SARS-CoV-2 ORF9B; test: as above
Protocol: as §1

Binder | yeast fitness gain
B1 | inactive: -0.00615

target: SARS-CoV-2 NSP15; test: as above
Protocol: as §1

Binder | yeast fitness gain
B2 | inactive: -0.223
B4 | inactive: -0.0243

target: SARS-CoV-2 NSP5; test: as above
Protocol: as §1

Binder | yeast fitness gain
B2 | inactive: -0.00666

target: SARS-CoV-2 NSP7; test: as above
Protocol: as §1

Binder | yeast fitness gain
B2 | inactive: 0.056
B4 | inactive: 0.0149

target: SARS-CoV-2 NSP9; test: as above
Protocol: as §1

Binder | yeast fitness gain
B2 | inactive: -0.0367

target: SARS-CoV-2 ORF10; test: as above
Protocol: as §1

Binder | yeast fitness gain
B2 | inactive: 0.01

target: SARS-CoV-2 ORF8; test: as above
Protocol: as §1

Binder | yeast fitness gain
B2 | inactive: -0.14

target: SARS-CoV-2 S; test: as above
Protocol: as §1

Binder | yeast fitness gain
B2 | inactive: -0.019

target: SARS-CoV-2 ORF6; test: as above
Protocol: as §1

Binder | yeast fitness gain
B3 | inactive: -0.241

target: SARS-CoV-2 NSP16; test: as above
Protocol: as §1

Binder | yeast fitness gain
B4 | inactive: -0.0326

target: SARS-CoV-2 NSP4; test: as above
Protocol: as §1

Binder | yeast fitness gain
B4 | inactive: -0.362
